Experimental data: the BET-seq Pho4 binding data (Le et al. 2018)
This is one part of the list. Values were computed here from the reads of four pooled replicates and scatter widely.

target: T1, Pho4 (S. cerevisiae) (UniProt P07270); assay: relative binding free energy (BET-seq); higher = weaker binding; settings: reference: library average
T1 sequence: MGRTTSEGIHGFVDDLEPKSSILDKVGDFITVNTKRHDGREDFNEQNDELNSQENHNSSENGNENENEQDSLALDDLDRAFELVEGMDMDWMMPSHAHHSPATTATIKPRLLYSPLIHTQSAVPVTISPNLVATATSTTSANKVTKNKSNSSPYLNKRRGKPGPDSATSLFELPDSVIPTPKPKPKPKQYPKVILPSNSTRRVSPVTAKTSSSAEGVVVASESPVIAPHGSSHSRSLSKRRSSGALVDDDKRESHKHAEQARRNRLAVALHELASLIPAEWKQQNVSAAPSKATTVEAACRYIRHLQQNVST

Row | Sequence | relative binding free energy
1 | TTCCGCACGTGAAGGG | 1.13 kJ/mol
2 | TTTATCACGTGCAGAG | 0.711 kJ/mol
3 | GGTTCCACGTGGATTT | 0.628 kJ/mol
4 | CGTGACACGTGGGCTT | -0.669 kJ/mol
5 | GTAGTCACGTGTGATT | 1.17 kJ/mol
6 | TGGCCCACGTGGAGGG | -0.628 kJ/mol
7 | GTGAGCACGTGAGGCG | 0.586 kJ/mol
8 | ATTATCACGTGTGGCG | 1.34 kJ/mol
9 | CTAGACACGTGTTGTG | -0.167 kJ/mol
10 | TAGATCACGTGGAGGA | 0.293 kJ/mol
11 | CAGTCCACGTGGGTGG | -1 kJ/mol
12 | CATTACACGTGGGTTT | -0.167 kJ/mol
13 | TAGTTCACGTGTGGAG | 1.26 kJ/mol
14 | TTCTTCACGTGCGTTT | 1.05 kJ/mol
15 | ATTAACACGTGGTATA | -0.544 kJ/mol
16 | TGGAGCACGTGGCTAG | -0.669 kJ/mol
17 | GGGCGCACGTGGGCGG | -1.13 kJ/mol
18 | TGAGTCACGTGCCGTG | -0.251 kJ/mol
19 | CGTTACACGTGTGTTT | 0.418 kJ/mol
20 | CGTCACACGTGGAGGT | -0.0418 kJ/mol
21 | CTCATCACGTGTTTGT | 0.418 kJ/mol
22 | TGTCACACGTGATGGA | 1 kJ/mol
23 | GGCATCACGTGTAGTG | 0.628 kJ/mol

Row | Sequence | relative binding free energy
24 | TGCGGCACGTGAGTGA | 0.669 kJ/mol
25 | TTGCGCACGTGGGGTC | -1.09 kJ/mol
26 | CGTTTCACGTGGTGGG | 0.628 kJ/mol
27 | TTATACACGTGCTGTA | -0.251 kJ/mol
28 | TCTGTCACGTGGATAA | 0.586 kJ/mol
29 | ATGGACACGTGTGTAT | 0.126 kJ/mol
30 | GCAATCACGTGCGGGG | 0.753 kJ/mol
31 | AATGGCACGTGTAAGA | 0.126 kJ/mol
32 | ATACGCACGTGGGGAT | -1.3 kJ/mol
33 | GTGCGCACGTGATGGT | 0.46 kJ/mol
34 | ATAGGCACGTGCTGGA | -0.586 kJ/mol
35 | CGGTACACGTGGGGAT | -0.377 kJ/mol
36 | TTAGACACGTGTAGGA | 0.0418 kJ/mol
37 | TTTAACACGTGTTGGC | 0.418 kJ/mol
38 | GATAACACGTGGGAGG | -0.335 kJ/mol
39 | TTAGACACGTGGGAAT | 0.628 kJ/mol
40 | ATGGTCACGTGCGTTT | 0.293 kJ/mol
41 | GGGTGCACGTGGGAGG | -0.293 kJ/mol
42 | GCTGGCACGTGAGGCG | 0.879 kJ/mol
43 | TCTTACACGTGTGGAG | 1.21 kJ/mol
44 | CAGGGCACGTGGAGAT | -0.293 kJ/mol
45 | TGGGGCACGTGATTGG | 0.0837 kJ/mol
46 | CAGTGCACGTGCGGTT | -0.335 kJ/mol

Row | Sequence | relative binding free energy
47 | GGGGCCACGTGTTCGG | 0.0418 kJ/mol
48 | CACGTCACGTGGATGG | 0.879 kJ/mol
49 | CTTTGCACGTGAATGT | 1 kJ/mol
50 | TTTGGCACGTGTTGAT | -0.167 kJ/mol
51 | CTTAGCACGTGGGAGC | -0.209 kJ/mol
52 | TTGGGCACGTGAGCTT | 0.669 kJ/mol
53 | TAGTTCACGTGTATGC | 1.34 kJ/mol
54 | ATTCACACGTGGTTTG | 0.335 kJ/mol
55 | GTTAACACGTGGTGTT | -0.0418 kJ/mol
56 | TGGCTCACGTGGGCAG | -0.126 kJ/mol
57 | TGGGTCACGTGCGCGT | 0.167 kJ/mol
58 | AACGTCACGTGGAGTG | 0 kJ/mol
59 | TTTTACACGTGAAAGG | 1.67 kJ/mol
60 | TGCACCACGTGAGTGG | 0.962 kJ/mol
61 | AGGTTCACGTGTATCA | 1.38 kJ/mol
62 | GCGGTCACGTGGTTAG | 0.628 kJ/mol
63 | AGTTGCACGTGTCATT | -0.46 kJ/mol
64 | TCGGGCACGTGGATTT | -0.251 kJ/mol
65 | GCCGTCACGTGGGGGG | -0.167 kJ/mol
66 | ATCTTCACGTGATGGT | 0.502 kJ/mol
67 | GTGTACACGTGGGTAG | -0.0418 kJ/mol
68 | CTTACCACGTGAGTTG | 1.76 kJ/mol
69 | GTGCTCACGTGTAGTG | 1.05 kJ/mol

Row | Sequence | relative binding free energy
70 | GGGACCACGTGGATTG | 0.293 kJ/mol
71 | CGAGGCACGTGTATGT | -0.46 kJ/mol
72 | TGAGACACGTGGCGGA | -0.251 kJ/mol
73 | TTGGTCACGTGGTGCA | 0.209 kJ/mol
74 | GTAGTCACGTGTTCAG | 0.753 kJ/mol
75 | TATGACACGTGGTCGA | 0.0837 kJ/mol
76 | AAACGCACGTGGGGTA | -1.09 kJ/mol
77 | CATATCACGTGTGGTG | 0.92 kJ/mol
78 | TAGTTCACGTGGGATA | 0.502 kJ/mol
79 | TTGTTCACGTGGATCT | 1.09 kJ/mol
80 | TCTGTCACGTGTTCGG | -0.0418 kJ/mol
81 | CGGGTCACGTGCAGGA | 0.167 kJ/mol
82 | TGCGCCACGTGTGCGG | -0.753 kJ/mol
83 | AGTAGCACGTGGAGGT | -0.586 kJ/mol
84 | GGGTGCACGTGATATC | 1.34 kJ/mol
85 | ATTTTCACGTGCCGGG | 0.879 kJ/mol
86 | TAGATCACGTGTCGTT | 0.209 kJ/mol
87 | AGATTCACGTGGATAT | 1.17 kJ/mol
88 | GTATTCACGTGGATGG | 0.586 kJ/mol
89 | GTACACACGTGTTTTG | 0.251 kJ/mol
90 | TCTTGCACGTGTGATG | 0.795 kJ/mol
91 | TACGGCACGTGGTTAG | -0.711 kJ/mol
92 | TTGCACACGTGGGTGA | -0.418 kJ/mol

Row | Sequence | relative binding free energy
93 | TAGAGCACGTGGCGGG | -1.09 kJ/mol
94 | CTGTTCACGTGAAAAG | 2.72 kJ/mol
95 | GGTGCCACGTGGCGGC | -0.628 kJ/mol
96 | TATGGCACGTGTGATG | 0.167 kJ/mol
97 | GTGCGCACGTGTATGG | -0.418 kJ/mol
98 | TGCGGCACGTGAGGGG | 0.795 kJ/mol
99 | TATGTCACGTGGGGAT | -0.0418 kJ/mol
100 | GAGGTCACGTGTCGGG | 0.377 kJ/mol
101 | GAGGGCACGTGAGACG | 0.502 kJ/mol
102 | TATCGCACGTGTGGTA | -0.167 kJ/mol
103 | TTTTACACGTGCGATT | 0.879 kJ/mol
104 | GTTGTCACGTGACGCT | 1.3 kJ/mol
105 | TTTTACACGTGCGATG | -0.126 kJ/mol
106 | TTCAACACGTGGGCGT | 0 kJ/mol
107 | GAGGGCACGTGGCGCT | -0.377 kJ/mol
108 | TGTAACACGTGTCGGA | 0.335 kJ/mol
109 | CGAGTCACGTGTCGTT | 0.544 kJ/mol
110 | GGTATCACGTGTCGTT | 0.795 kJ/mol
111 | CCGTTCACGTGGTTGG | 0.795 kJ/mol
112 | AGGGTCACGTGTCGGA | 0.753 kJ/mol
113 | AGGGTCACGTGGGCGG | -0.0837 kJ/mol
114 | TGATGCACGTGAGTGG | 1.13 kJ/mol
115 | GGTGTCACGTGGTAGG | 0.167 kJ/mol
